Assay results reported in PubChem BioAssay AID1745853 (National Center for Advancing Translational Sciences (NCATS), 2022).
The list shows a part of the results. These are further read-outs of the screen, such as a control signal, another cell line or another target. No call is given for them.

How the values were obtained:
Test in all cases: Primary Screen for Target Class Profiling of Small Molecule Inhibitors of Methyltransferases
[1] = target: Glycine N-methyltransferase (Homo sapiens) (UniProt Q14749); conditions: purified enzyme, MTase-Glo SAH luminescence; measured here: GNMT inhibition; at 40 µM; stronger effect = lower value
Method in brief: (§1)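 Each enzyme was reacted with SAM and its substrate, with compounds tested once at 40 uM; SAH formed was read by MTase-Glo luminescence.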

[2] = target: Guanidinoacetate N-methyltransferase (Homo sapiens) (UniProt Q14353); conditions: purified enzyme, MTase-Glo SAH luminescence; measured here: GAMT inhibition; at 40 µM; stronger effect = lower value
Method in brief: as §1

[3] = target: Histamine N-methyltransferase (Homo sapiens) (UniProt P50135); conditions: purified enzyme, MTase-Glo SAH luminescence; measured here: HNMT inhibition; at 40 µM; stronger effect = lower value
Method in brief: as §1

[4] = target: Nicotinamide N-methyltransferase (Homo sapiens) (UniProt P40261); conditions: purified enzyme, MTase-Glo SAH luminescence; measured here: NNMT inhibition; at 40 µM; stronger effect = lower value
Method in brief: as §1

[5] = target: Phenylethanolamine N-methyltransferase (Homo sapiens) (UniProt P11086); conditions: purified enzyme, MTase-Glo SAH luminescence; measured here: PNMT inhibition; at 40 µM; stronger effect = lower value
Method in brief: as §1
% is set by controls: 0 for no effect and ±100 for the full control effect.

| Structure (SMILES) | activity change, negative = inhibition [1] [%] | activity change, negative = inhibition [2] [%] | activity change, negative = inhibition [3] [%] | activity change, negative = inhibition [4] [%] | activity change, negative = inhibition [5] [%] |
| --- | --- | --- | --- | --- | --- |
| Cn1nc2n(C)c(=O)c3ccc(C(=O)NC4CCCCC4)cc3n2c1=O | -8.82 | -5.39 | 5.93 | -13.2 | -7.31 |
| NC(=O)NCCCC(NC(=O)Cc1ccccc1)C(=O)O (configuration not stated) | 3.26 | -0.84 | 9.38 | -12.7 | 5.65 |
| CCOC(=O)c1cccc(NCC2=CC(C)(C)Oc3ccc(OC)cc32)c1 | -5.09 | -1.77 | -1.54 | -3.16 | -5.06 |
| O=C(CCn1ccc2cc(S(=O)(=O)N3CCCCC3)ccc21)N1CCC(N2CCCCC2)CC1 | 1.4 | 4.05 | -23 | -0.496 | -1.86 |
| O=C(Cn1nc2c(cc1=O)CCCC2)N1CCOCC1 | -0.824 | -0.374 | -0.021 | -4.15 | 0.483 |
| Cc1ccc(NC(=O)N2CCn3cccc3C2Cc2ccccc2)cc1 (configuration not stated) | -7.49 | 0 | -1.78 | -5.34 | -4.26 |
| CC(NC(=O)CCc1nc2ccccc2c(=O)[nH]1)c1ccccc1 (configuration not stated) | -1.25 | – | -4.41 | – | – |
| COC(=O)c1ncn2c1C(=O)N(c1ccc(F)cc1)C(C)(C(=O)NCc1ccccc1)C2 (configuration not stated) | -9.96 | 0.535 | -3.11 | -3.65 | -4.82 |
| COc1nc(-c2ccc3c(c2)OCO3)n(-c2ccc(NC(=O)CSc3ccccc3)cc2)n1 | -2.71 | -9.09 | -1.1 | -31.8 | -6.28 |
| Cc1cccc(CN2CCCn3nc(C(=O)NC(C)Cc4ccco4)cc3C2=O)c1 (configuration not stated) | 1.44 | 0 | 8.8 | -2.69 | 3.65 |
| CCCn1c(=O)c2ccc(C(=O)NC3CCCC3)cc2n2c(SCC(=O)Nc3ccc(C)cc3)nnc12 | 5.68 | 0 | 6.76 | 4.74 | 4.29 |
| C=CCn1c(=O)c2ccc(C(=O)NC(C)C)cc2n2c(=O)n(CC(=O)NCc3ccc(C)cc3)nc12 | 8.43 | 0.172 | 9.98 | 4.86 | 7.47 |
| CCCOc1ccc(C2NC(C(=O)O)Cc3c2[nH]c2ccccc32)cc1OC (configuration not stated) | -14.9 | 1.96 | 3.63 | 3.12 | -2.95 |
| CC(=O)[C@H]1CCC2C3CCC4=CC(=O)CC[C@]4(C)C3[C@H](O)C[C@@]21C (some centres not stated) | – | 4.93 | – | -10.4 | -0.023 |
| Cc1ccc(N2C(=O)c3cc(-c4ccco4)nn3CC2(C)C(=O)NC2CCCCC2)cc1 (configuration not stated) | -7.69 | 2.87 | 6.82 | 2.88 | -1.96 |
| CC(C)NC(=O)C[C@@H]1O[C@H](CNC(=O)C2CC2)[C@@H](O)[C@H]1O | -2.84 | -9.13 | -2.82 | -15.6 | -13.5 |
| COc1ccc(-c2cc3n(n2)CC(C)(C(=O)NCc2ccccc2OC)N(Cc2ccccc2F)C3=O)cc1 (configuration not stated) | -6.55 | 3.04 | -1.92 | 1.55 | -16.8 |
| O=C(Nc1ccc(-c2ccnc(Nc3ccc(N4CCOCC4)cc3)n2)cc1)C1CCCN1 (configuration not stated) | -19.1 | – | -2.47 | – | – |
| CCCCOc1c(C(=O)c2c(F)cc(C)cc2F)cnc2n[nH]cc12 | -6.21 | -2.93 | -7.84 | -12.5 | -3.8 |
| O=C(O)c1cn(C2CC2)c2cc(N3C[C@@H]4C[C@H]3CN4)c(F)cc2c1=O | 0.178 | 0.952 | 2.98 | -6.78 | 5.92 |

| Structure (SMILES) | activity change, negative = inhibition [1] [%] | activity change, negative = inhibition [2] [%] | activity change, negative = inhibition [3] [%] | activity change, negative = inhibition [4] [%] | activity change, negative = inhibition [5] [%] |
| --- | --- | --- | --- | --- | --- |
| Oc1ccccc1CN1CC(CNc2cccnc2)C2(C1)CN(c1ccccc1)C2 (configuration not stated) | -10.3 | -9.62 | -32.7 | -15.9 | -14.2 |
| COc1ccc(CN[C@H]2CC(C)(C)[C@@H]3C[C@@](C)(O)CC[C@]23CCC(=O)NCc2ccco2)cc1 | -5.23 | -7.69 | -26.5 | -11.5 | -4.46 |
| Cn1nc2n(Cc3ccccc3)c(=O)c3ccc(C(=O)NC4CCCC4)cc3n2c1=O | 1.27 | 0 | 0.804 | 1.39 | 1.22 |
| COc1ccc(-c2cc(C[C@H]3CNCC[C@H]3CC(=O)N3CCN(C)CC3)no2)cc1 | -3.74 | 4.13 | 0.054 | 0.87 | 15.2 |
| COc1ccccc1OCCNC(=O)C1(C)CCCCC(=O)N1 (configuration not stated) | -3 | -1.89 | -1.38 | -4.6 | -3.58 |
| Cc1ccc(C(=O)Cn2nc3n(CCCOC(C)C)c(=O)c4ccccc4n3c2=O)c(C)c1 | 0.095 | -2.54 | 0.596 | -5.42 | -1.23 |
| OCCc1cc(CC2(NCc3ccc(CO)o3)COC2)no1 | -3.72 | 2.43 | 3.27 | -1.13 | 0.149 |
| CCCn1c(=O)c2ccccc2n2c(SCC(=O)Nc3ccc(F)cc3F)nnc12 | -4.62 | 1.52 | 1.9 | -7.37 | -0.75 |
| COc1cccc(CN2CC(Oc3ccccc3C(=O)NC3CC3)C2)c1 | -2.22 | -2.15 | 0.188 | -5.24 | 2.32 |
| COC(=O)c1ncn2c1C(=O)N(Cc1ccc(OC(C)C)cc1)C(C)(C(=O)NC1CCCC1)C2 (configuration not stated) | -8.19 | -1.83 | -2.43 | -1.36 | -1.14 |
| CCOC(=O)c1cc2n(n1)CC(C)(C(=O)NCc1ccc(F)cc1)N(Cc1ccc(F)cc1)C2=O (configuration not stated) | -3.07 | -0.317 | 1.64 | -5.45 | -2.76 |
| C[C@@H]1O[C@@H](O[C@H]2CC[C@@]3(C)C(CC[C@]4(C)C3CC=C3[C@@H]5CC(C)(C)CC[C@]5(C(=O)O[C@@H]5O[C@H](CO)[C@@H](O)[C@H](O)[C@H]5O)CC[C@]34C)[C@]2(C)CO)[C@H](O)[C@H](O[C@@H]2O[C@H](CO)[C@@H](O)[C@H](O)[C@H]2O)[C@H]1O (some centres not stated) | -0.166 | 6.15 | 5.46 | -6.29 | 7.35 |
| O=C(CN1CCOCC1)NC1CCc2nnc(C3CC3)n2CC1 (configuration not stated) | -0.968 | -1.02 | 0.312 | -3.84 | -1.96 |
| O=C(COc1cccc(-c2nnc3n2CCCC3)c1)Nc1ccc(Cl)cc1F | -6.96 | -5.02 | -6.4 | -13.3 | -6.72 |
| O=C(CO)[C@@H](O)[C@H](O[C@@H]1O[C@H](CO)[C@H](O)[C@H](O)[C@H]1O)[C@H](O)CO | -0.619 | -9.36 | 6.85 | -15.9 | 0.372 |
| CCCC1(C(=O)O)CCCN(S(=O)(=O)c2ccsc2C(=O)O)C1 (configuration not stated) | -2.62 | 0.469 | -1.36 | 0.096 | 2.89 |
| COc1cccc(CNc2nc3c(S(=O)(=O)c4ccc(C)c(C)c4)nnn3c3ccccc23)c1 | -2.15 | 0 | 5.85 | 5.99 | -1.54 |
| CN1C(=O)c2cc3ccccc3n2CC1(C)C(=O)NCC(=O)NCCc1ccccc1 (configuration not stated) | -1.51 | 0 | 4.56 | -0.653 | 2.23 |
| COc1cc2nc(-c3cc(F)ccc3O)nc(N[C@@H]3CNC[C@H]3C(C)(C)O)c2cc1OC | 1.88 | 15.3 | 2.31 | -16.5 | 2.05 |
| COc1ncccc1-c1csc(CN2CCCC(C)(NC(C)=O)C2)c1 (configuration not stated) | -5.25 | -7.79 | -7.3 | -14.8 | -6.49 |

| Structure (SMILES) | activity change, negative = inhibition [1] [%] | activity change, negative = inhibition [2] [%] | activity change, negative = inhibition [3] [%] | activity change, negative = inhibition [4] [%] | activity change, negative = inhibition [5] [%] |
| --- | --- | --- | --- | --- | --- |
| CN1CCCC2(CCN(C(=O)CCc3ccc(Cl)cc3)C2)C1=O (configuration not stated) | -4.33 | -3.17 | -0.9 | -6.62 | -3.73 |
| O=C(COc1ccc(Cl)cc1)N1CCc2nn(CC3CC3)c(=O)n2CC1 | 0.656 | 0.973 | -0.265 | 2.95 | 13.3 |
| CCC(C)NC(=O)c1ccc2c(=O)n(CC(C)C)c3nn(Cc4cc(C)ccc4C)c(=O)n3c2c1 (configuration not stated) | -1.26 | -0.481 | 1.48 | -4.76 | -3.77 |
| O=C(c1ccc(Cl)cc1)N1CCN(c2ccc([N+](=O)[O-])c3ncccc23)CC1 | -19.8 | 5.2 | -6.01 | -10.4 | 4.91 |
| N#Cc1ccc(C(=O)NCc2nn(Cc3ccccc3)c3ccccc23)c(F)c1 | 8.93 | 0.923 | 8.64 | -5.61 | 7.13 |
| Cc1nn(-c2ccccc2)c2c1C(C)N(C1CCN([S+](=O)([O-])c3ccccc3)CC1)C2=O (configuration not stated) | -1.69 | -0.418 | -1.58 | -0.448 | 9.45 |
| CC1(C(=O)NC2CCCCCC2)Cn2c(nc3ccccc32)C(=O)N1Cc1ccccc1F (configuration not stated) | -4.53 | 3.18 | 1.12 | -1.31 | -4.37 |
| CCCn1c(=O)c2ccccc2n2c(=O)n(CC(=O)c3ccc(C)cc3C)nc12 | -0.982 | 0 | 6.1 | -8.62 | -0.54 |
| CSc1ccc(CCNC(=O)c2cc3n(n2)CCCN(Cc2ccc(Cl)cc2)C3=O)cc1 | -7.25 | 1.38 | -7.75 | -10 | -3.08 |
| CN(C)c1ccc(CNC(=O)c2cc3n(n2)CC(C)(C(=O)NCc2ccccc2)N(C)C3=O)cc1 (configuration not stated) | 7.66 | 0 | 8.28 | 12.7 | 5.45 |
| COc1ccc(CCNC(=O)CCc2nnc3n(Cc4ccc(F)cc4)c(=O)c4ccccc4n23)cc1OC | -15 | 1.79 | -1.11 | -25.3 | -2.42 |
| O=C(Cn1c(=O)oc2cc(S(=O)(=O)N3CCCC3)ccc21)Nc1ccc(C(F)(F)F)cc1 | -5.26 | 3.52 | 2.31 | 0.274 | -23 |
| COc1cccc(CNc2ccc(S(=O)(=O)Nc3nc4ccccc4s3)cc2)c1O | -23.1 | -7.91 | 8.72 | -49 | -14 |
| O=C(C1CCCC1)N1CCC(n2cnnc2C2CC2)CC1 | -3.35 | -8.7 | -3.29 | -5.44 | 9.32 |
| CCc1cc2c(cc3n2CC(C)(C(=O)NC2CCCCC2)N(Cc2cccc(Cl)c2)C3=O)s1 (configuration not stated) | -2.86 | 1.51 | -7.77 | -2.84 | -7.39 |
| Cc1ccccc1N1C(=O)c2cc3sccc3n2CC1(C)C(=O)NC1CCCCC1 (configuration not stated) | 3.14 | -2.62 | 2.72 | 12.3 | 3.81 |
| CC1(C(=O)NC2CCCCCCC2)Cn2c(cc3sccc32)C(=O)N1CCN1CCOCC1 (configuration not stated) | 4.37 | 1.27 | 8.58 | -2.03 | 3.51 |
| CC(=O)OCC(=O)O[C@@H]1[C@H]2[C@@H](OC(=O)c3ccccc3)[C@@H](C)C[C@]2(O)[C@H](OC(C)=O)C2(C)[C@H]3CC(C)(C)C(=O)[C@@H]3CC1(OC(C)=O)[C@@H]2OC(C)=O (some centres not stated) | 1.37 | 2.06 | 7.46 | -11.5 | 4.5 |
| CCCNS(=O)(=O)c1ccc2[nH]c(=O)[nH]c2c1 | 2.14 | 0.814 | 1.38 | -1.09 | -5.46 |
